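Dose response: 5 concentrations. Exposure: 48 h. Format: 96-well plates. Endpoint: linear interpolation; highest concentration if not reached. At the GI50, growth is halved.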 For part of its entries the source gives two or more results. The other results are left out here. There may be further records. For some assays here: The tests behind the records often covered other concentration ranges, which the source does not state; some values may only mark the edge of a range.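 TGI denotes the concentration required for complete inhibition of growth.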 For some assays here: Values that stand side by side repeat one measurement (runs, samples, wells, individuals or studies). Brackets tell where a record comes from. Letters hold for one entry only. A value given as a limit tells only on which side of the number the result lay.

What all share (assay): inhibition of tumour cell growth, NCI panel, 48 h
For assay [1], the system named is OVCAR-8 ovarian.
Assay [2] has as its system SR leukemia.
Assay [3] relates to NCI-H23 lung.
Assay [4] deals with SN12C renal.
Assay [5] relates to MALME-3M melanoma.
For assay [6], the system named is MOLT-4 leukemia.
The subject of assay [7] is RPMI-8226 leukemia.
In assay [8] the test system is BT-549 breast.
The subject of assay [9] is SK-MEL-28 melanoma.
Assay [10] concerns UACC-62 melanoma.
Assay [11] concerns HL-60(TB) leukemia.
Assay [12] concerns M14 melanoma.
In assay [13] the test system is LXFL 529 NSCLC.
The test system of assay [14] is SNB-19 CNS.
Assay [15] deals with SK-MEL-5 melanoma.
The test system of assay [16] is SNB-78 CNS.
Assay [17] has as its system SF-295 CNS.
For assay [18], the system named is SF-539 CNS.
For assay [19], the system named is OVCAR-5 ovarian.
In assay [20] the test system is NCI-H226 lung.
Assay [21] deals with NCI-H522 lung.
The test system of assay [22] is CCRF-CEM leukemia.
Assay [23] relates to EKVX NSCLC.
The test system of assay [24] is 786-0 renal.
The test system of assay [25] is HOP-62 NSCLC.
The test system of assay [26] is OVCAR-4 ovarian.
Assay [27] relates to HOP-92 NSCLC.
The subject of assay [28] is ACHN renal.
The subject of assay [29] is SK-OV-3 ovarian.
The test system of assay [30] is HCT-116 colon.
In assay [31] the test system is MCF7 breast.
In assay [32] the test system is NCI/ADR-RES ovarian.

As for `COc1ccc(/C=C\c2cc(OC)c(OC)c(OC)c2)cc1OC(=O)C(N)CCC(=O)O` (stereo unspecified), the TGI in assay [1] was 61 µM [1 test] and 29.2 nM [mean of 3 tests]; in assay [2], 6.34 nM, 9.4 nM, > 100 µM; in assay [5], 60.6 nM and > 54.8 µM; in assay [6], 9.78 nM, 31.5 nM, 35 µM; in assay [7], 75 nM and 35.8 µM. For the same molecule, the GI50 in [3] is 2.33 nM [1 test] and 0.209 nM [mean of 2 tests]; in assay [4] it was 6.58 nM [1 test] and 0.566 nM [mean of 3 tests]; in assay [8], 0.136 nM [1 test] and 48.7 nM [mean of 2 tests].

For the molecule `COC1/C=C\C=C(/C)C(=O)Nc2cc3nc4ccc(Br)cc4oc-3c(c2=O)CC(C)CC(OC)C(O)C(C)/C=C(\C)C1OC(N)=O` (stereo unspecified), the TGI is 2.96 nM and 14.8 µM in assay [9]; 6.03 nM and 7.91 µM in assay [10]; 6.28 nM [1 test] and 11.4 µM [mean of 3 tests] in [3]; 1.92 nM and 1.31 µM in [11]. For the same molecule, in [3], the GI50 was 1.44 nM [1 test] and 52.8 nM [mean of 3 tests].

Turning to `COc1cc2c(c(OC)c1OC)-c1ccc(SC)c(=O)cc1[C@@H](NC(=O)c1ccc(OC(C)=O)cc1)CC2`, the TGI in assay [12] is 71.9 nM and 31.5 µM; in assay [13], 92.1 nM and 35.7 µM; in assay [14], 51.4 nM and > 100 µM; in assay [15], 54.1 nM and 14.7 µM; in assay [5], 82.6 nM and 64.3 µM; in assay [16], 43.3 nM and > 100 µM. The TGI in assay [17] is 57.3 nM and 66.2 µM.

For `c1ccc(C(=NNc2nc3ccccc3o2)c2ccccn2)nc1`, the TGI is 225 nM [sample A] and 2.52 µM [sample B] in assay [12]; 920 nM [sample A] and > 100 µM [sample B] in assay [1]; 348 nM [sample A] and 6.45 µM [sample B] in [18]; 611 nM [sample A] and > 53.6 µM [sample B] in [19]; 186 nM [sample A] and 2.88 µM [sample B] in assay [20]; 301 nM [sample A] and > 37.5 µM [sample B] in assay [2]. For the same molecule, the TGI in [21] was 1.4 µM [sample A] and > 64 µM [sample B]; in assay [22], 62.9 nM [sample A] and > 100 µM [sample B]; in [23], < 29.9 nM [sample A] and > 35.9 µM [sample B]; in assay [24], 123 nM [sample A] and 3.25 µM [sample B]; in assay [25] it was 286 nM [sample A] and > 35.8 µM [sample B]; in assay [26] it was 78.6 nM [sample A] and 8.09 µM [sample B]. Further, the TGI is 229 nM [sample A] and 5.6 µM [sample B] in assay [5]; 68 nM [sample A] and 23.7 µM [sample B] in [27]; 178 nM [sample A] and 28.3 µM [sample B] in assay [7]; 1.73 µM [sample A] and > 34.3 µM [sample B] in [28]; 3.98 µM [sample A] and 41.4 µM [sample B] in assay [8]; 156 nM [sample A] and 12.5 µM [sample B] in assay [29]. Moreover, the TGI is 212 nM [sample A] and 16.6 µM [sample B] in assay [30]; 43.4 nM [sample A] and 28 µM [sample B] in [31]; 63.8 nM [sample A] and > 27.7 µM [sample B] in assay [32].

The values above are taken from PubChem BioAssay (NCI).
